For assay [1], the target named is T1, full-length TMEM115–FLAG–HIS (in vitro translated) (human) (UniProt Q12893).
T1 sequence: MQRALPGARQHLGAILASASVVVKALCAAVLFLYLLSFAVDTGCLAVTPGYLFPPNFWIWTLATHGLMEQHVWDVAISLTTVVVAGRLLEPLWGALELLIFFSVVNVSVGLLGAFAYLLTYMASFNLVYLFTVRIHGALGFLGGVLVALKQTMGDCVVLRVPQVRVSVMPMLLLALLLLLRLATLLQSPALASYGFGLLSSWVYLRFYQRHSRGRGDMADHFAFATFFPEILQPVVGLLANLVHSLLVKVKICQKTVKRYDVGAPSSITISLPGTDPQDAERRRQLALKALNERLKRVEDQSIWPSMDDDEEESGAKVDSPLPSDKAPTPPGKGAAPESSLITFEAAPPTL
The experiment in a line: co-IP; in vitro translated products combined in cell lysis buffer, FLAG immunoprecipitation, beads washed with cell lysis buffer containing 500 mM NaCl.

Assay [2] concerns the target T1, full-length TMEM115–FLAG–HIS (in vitro translated) (human). Description: co-IP; in vitro translated products combined in cell lysis buffer, FLAG immunoprecipitation, beads washed with cell lysis buffer containing 150 mM NaCl.

Results are given in words; binding and its absence hold for the method and conditions named. Binding seen in cells or lysates may run through a third protein. Some results given as binding are weak or reduced against the parent protein; the word gives no strength. Sequences can lack the tags named with a protein.

For 5 molecules, binding results are on record in PMC4077589.

B1: Myc-tagged COG1 (in vitro translated) (protein, UniProt Q8WTW3 1-980)
chain: MATAATSPALKRLDLRDPAALFETHGAEEIRGLERQVRAEIEHKKEELRQMVGERYRDLIEAADTIGQMRRCAVGLVDAVKATDQYCARLRQAGSAAPRPPRAQQPQQPSQEKFYSMAAQIKLLLEIPEKIWSSMEASQCLHATQLYLLCCHLHSLLQLDSSSSRYSPVLSRFPILIRQVAAASHFRSTILHESKMLLKCQGVSDQAVAEALCSIMLLEESSPRQALTDFLLARKATIQKLLNQPHHGAGIKAQICSLVELLATTLKQAHALFYTLPEGLLPDPALPCGLLFSTLETITGQHPAGKGTGVLQEEMKLCSWFKHLPASIVEFQPTLRTLAHPISQEYLKDTLQKWIHMCNEDIKNGITNLLMYVKSMKGLAGIRDAMWELLTNESTNHSWDVLCRRLLEKPLLFWEDMMQQLFLDRLQTLTKEGFDSISSSSKELLVSALQELESSTSNSPSNKHIHFEYNMSLFLWSESPNDLPSDAAWVSVANRGQFASSGLSMKAQAISPCVQNFCSALDSKLKVKLDDLLAYLPSDDSSLPKDVSPTQAKSSAFDRYADAGTVQEMLRTQSVACIKHIVDCIRAELQSIEEGVQGQQDALNSAKLHSVLFMARLCQSLGELCPHLKQCILGKSESSEKPAREFRALRKQGKVKTQEIIPTQAKWQEVKEVLLQQSVMGYQVWSSAVVKVLIHGFTQSLLLDDAGSVLATATSWDELEIQEEAESGSSVTSKIRLPAQPSWYVQSFLFSLCQEINRVGGHALPKVTLQEMLKSCMVQVVAAYEKLSEEKQIKKEGAFPVTQNRALQLLYDLRYLNIVLTAKGDEVKSGRSKPDSRIEKVTDHLEALIDPFDLDVFTPHLNSNLHRLVQRTSVLFGLVTGTENQLAPRSSTFNSQEPHNILPLASSQIRFGLLPLSMTSTRKAKSTRNIETKAQVVPPARSTAGDPTVPGSLFRQLVSEEDNTSAPSLFKLGWLSSMTK
Turning to B1, the binding entry in assay [1] was “no binding (condition: beads washed with 500 mM NaCl)”; in assay [2], “binds”.

B2: Myc-tagged COG2 (in vitro translated) (protein, UniProt Q14746 1-738)
chain: MEKSRMNLPKGPDTLCFDKDEFMKEDFDVDHFVSDCRKRVQLEELRDDLELYYKLLKTAMVELINKDYADFVNLSTNLVGMDKALNQLSVPLGQLREEVLSLRSSVSEGIRAVDERMSKQEDIRKKKMCVLRLIQVIRSVEKIEKILNSQSSKETSALEASSPLLTGQILERIATEFNQLQFHAVQSKGMPLLDKVRPRIAGITAMLQQSLEGLLLEGLQTSDVDIIRHCLRTYATIDKTRDAEALVGQVLVKPYIDEVIIEQFVESHPNGLQVMYNKLLEFVPHHCRLLREVTGGAISSEKGNTVPGYDFLVNSVWPQIVQGLEEKLPSLFNPGNPDAFHEKYTISMDFVRRLERQCGSQASVKRLRAHPAYHSFNKKWNLPVYFQIRFREIAGSLEAALTDVLEDAPAESPYCLLASHRTWSSLRRCWSDEMFLPLLVHRLWRLTLQILARYSVFVNELSLRPISNESPKEIKKPLVTGSKEPSITQGNTEDQGSGPSETKPVVSISRTQLVYVVADLDKLQEQLPELLEIIKPKLEMIGFKNFSSISAALEDSQSSFSACVPSLSSKIIQDLSDSCFGFLKSALEVPRLYRRTNKEVPTTASSYVDSALKPLFQLQSGHKDKLKQAIIQQWLEGTLSESTHKYYETVSDVLNSVKKMEESLKRLKQARKTTPANPVGPSGGMSDDDKIRLQLALDVEYLGEQIQKLGLQASDIKSFSALAELVAAAKDQATAEQP
Regarding B2, the binding entry in assay [1] is given as “no binding (condition: beads washed with 500 mM NaCl)”; in assay [2], “binds”.

B3: Myc-tagged COG6 (in vitro translated) (protein, UniProt Q9Y2V7 1-657)
chain: MAEGSGEVVAVSATGAANGLNNGAGGTSATTCNPLSRKLHKILETRLDNDKEMLEALKALSTFFVENSLRTRRNLRGDIERKSLAINEEFVSIFKEVKEELESISEDVQAMSNCCQDMTSRLQAAKEQTQDLIVKTTKLQSESQKLEIRAQVADAFLSKFQLTSDEMSLLRGTREGPITEDFFKALGRVKQIHNDVKVLLRTNQQTAGLEIMEQMALLQETAYERLYRWAQSECRTLTQESCDVSPVLTQAMEALQDRPVLYKYTLDEFGTARRSTVVRGFIDALTRGGPGGTPRPIEMHSHDPLRYVGDMLAWLHQATASEKEHLEALLKHVTTQGVEENIQEVVGHITEGVCRPLKVRIEQVIVAEPGAVLLYKISNLLKFYHHTISGIVGNSATALLTTIEEMHLLSKKIFFNSLSLHASKLMDKVELPPPDLGPSSALNQTLMLLREVLASHDSSVVPLDARQADFVQVLSCVLDPLLQMCTVSASNLGTADMATFMVNSLYMMKTTLALFEFTDRRLEMLQFQIEAHLDTLINEQASYVLTRVGLSYIYNTVQQHKPEQGSLANMPNLDSVTLKAAMVQFDRYLSAPDNLLIPQLNFLLSATVKEQIVKQSTELVCRAYGEVYAAVMNPINEYKDPENILHRSPQQVQTLLS
With B3, in assay [1], the binding entry is “no binding (condition: beads washed with 500 mM NaCl)”.

B4: Myc-tagged COG4 (in vitro translated) (protein, UniProt Q9H9E3 1-785)
chain: MADLDSPPKLSGVQQPSEGVGGGRCSEISAELIRSLTELQELEAVYERLCGEEKVVERELDALLEQQNTIESKMVTLHRMGPNLQLIEGDAKQLAGMITFTCNLAENVSSKVRQLDLAKNRLYQAIQRADDILDLKFCMDGVQTALRSEDYEQAAAHTHRYLCLDKSVIELSRQGKEGSMIDANLKLLQEAEQRLKAIVAEKFAIATKEGDLPQVERFFKIFPLLGLHEEGLRKFSEYLCKQVASKAEENLLMVLGTDMSDRRAAVIFADTLTLLFEGIARIVETHQPIVETYYGPGRLYTLIKYLQVECDRQVEKVVDKFIKQRDYHQQFRHVQNNLMRNSTTEKIEPRELDPILTEVTLMNARSELYLRFLKKRISSDFEVGDSMASEEVKQEHQKCLDKLLNNCLLSCTMQELIGLYVTMEEYFMRETVNKAVALDTYEKGQLTSSMVDDVFYIVKKCIGRALSSSSIDCLCAMINLATTELESDFRDVLCNKLRMGFPATTFQDIQRGVTSAVNIMHSSLQQGKFDTKGIESTDEAKMSFLVTLNNVEVCSENISTLKKTLESDCTKLFSQGIGGEQAQAKFDSCLSDLAAVSNKFRDLLQEGLTELNSTAIKPQVQPWINSFFSVSHNIEEEEFNDYEANDPWVQQFILNLEQQMAEFKASLSPVIYDSLTGLMTSLVAVELEKVVLKSTFNRLGGLQFDKELRSLIAYLTTVTTWTIRDKFARLSQMATILNLERVTEILDYWGPNSGPLTWRLTPAEVRQVLALRIDFRSEDIKRLRL
On to B4, for which the binding entry in assay [1] and in assay [2] was “binds” each time.

B5: Myc-tagged COG3 (in vitro translated) (protein, UniProt Q96JB2 1-828)
chain: MAEAALLLLPEAAAERDAREKLALWDRRPDTTAPLTDRQTDSVLELKAAAENLPVPAELPIEDLCSLTSQSLPIELTSVVPESTEDILLKGFTSLGMEEERIETAQQFFSWFAKLQTQMDQDEGTKYRQMRDYLSGFQEQCDAILNDVNSALQHLESLQKQYLFVSNKTGTLHEACEQLLKEQSELVDLAENIQQKLSYFNELETINTKLNSPTLSVNSDGFIPMLAKLDDCITYISSHPNFKDYPIYLLKFKQCLSKALHLMKTYTVNTLQTLTSQLLKRDPSSVPNADNAFTLFYVKFRAAAPKVRTLIEQIELRSEKIPEYQQLLNDIHQCYLDQRELLLGPSIACTVAELTSQNNRDHCALVRSGCAFMVHVCQDEHQLYNEFFTKPTSKLDELLEKLCVSLYDVFRPLIIHVIHLETLSELCGILKNEVLEDHVQNNAEQLGAFAAGVKQMLEDVQERLVYRTHIYIQTDITGYKPAPGDLAYPDKLVMMEQIAQSLKDEQKKVPSEASFSDVHLEEGESNSLTKSGSTESLNPRPQTTISPADLHGMWYPTVRRTLVCLSKLYRCIDRAVFQGLSQEALSACIQSLLGASESISKNKTQIDGQLFLIKHLLILREQIAPFHTEFTIKEISLDLKKTRDAAFKILNPMTVPRFFRLNSNNALIEFLLEGTPEIREHYLDSKKDVDRHLKSACEQFIQQQTKLFVEQLEEFMTKVSALKTMASQGGPKYTLSQQPWAQPAKVNDLAATAYKTIKTKLPVTLRSMSLYLSNKDTEFILFKPVRNNIQQVFQKFHALLKEEFSPEDIQIIACPSMEQLSLLLLVSK
On to B5, for which the binding entry in assay [1] is on record as “no binding (condition: beads washed with 500 mM NaCl)”.
